The target of assay [1] is T1, VSV-DTX (stable MEF line) (UniProt Q86Y01).
T1 sequence: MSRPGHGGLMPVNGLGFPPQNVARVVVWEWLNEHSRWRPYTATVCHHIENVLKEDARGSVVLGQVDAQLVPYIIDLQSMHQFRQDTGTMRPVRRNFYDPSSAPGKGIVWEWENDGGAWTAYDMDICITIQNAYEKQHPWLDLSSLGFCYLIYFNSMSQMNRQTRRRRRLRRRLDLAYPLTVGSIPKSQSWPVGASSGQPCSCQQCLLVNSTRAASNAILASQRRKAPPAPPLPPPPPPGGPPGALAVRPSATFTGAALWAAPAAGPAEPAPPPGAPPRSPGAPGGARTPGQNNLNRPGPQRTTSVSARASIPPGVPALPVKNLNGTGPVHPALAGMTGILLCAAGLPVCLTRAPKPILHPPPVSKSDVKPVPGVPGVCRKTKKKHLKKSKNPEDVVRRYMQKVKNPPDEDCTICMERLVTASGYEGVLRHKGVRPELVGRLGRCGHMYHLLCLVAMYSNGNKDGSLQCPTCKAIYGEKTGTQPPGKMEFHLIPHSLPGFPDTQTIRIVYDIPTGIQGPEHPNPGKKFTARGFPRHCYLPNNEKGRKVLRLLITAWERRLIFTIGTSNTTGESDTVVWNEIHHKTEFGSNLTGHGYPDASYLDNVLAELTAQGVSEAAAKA
The assay is described as follows: co-IP; stable MEF lines with low amounts of VSV-DTX and S-tagged eIF3f; IP with VSV antibody, VSV-peptide-eluted; Western blot.

Amino acid sequences for entries named in this document (tags omitted). A change or cut given only in a name is not applied to a line headed by its entry. Chains listed by the source or under a name are the forms on record and can include a tag or linker. Residues count along the entry.
UniProt Q9DCH4: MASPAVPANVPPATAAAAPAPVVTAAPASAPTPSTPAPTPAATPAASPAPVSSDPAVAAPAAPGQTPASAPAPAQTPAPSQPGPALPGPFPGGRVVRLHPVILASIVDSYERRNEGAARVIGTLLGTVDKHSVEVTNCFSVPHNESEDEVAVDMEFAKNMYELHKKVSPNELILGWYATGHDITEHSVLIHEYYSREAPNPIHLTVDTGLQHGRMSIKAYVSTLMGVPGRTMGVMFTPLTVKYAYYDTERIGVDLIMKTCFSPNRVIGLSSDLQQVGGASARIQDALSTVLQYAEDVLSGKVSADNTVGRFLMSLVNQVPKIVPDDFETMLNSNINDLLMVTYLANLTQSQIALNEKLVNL
HA-tagged murine eIF3f (1–192): residues 1-192 of Q9DCH4
Flag-tagged murine eIF3f (91–361): residues 91-361 of Q9DCH4
Flag-tagged murine eIF3f (188–361): residues 188-361 of Q9DCH4
S-tagged murine eIF3f active site mutant (HDI to AAA; stable MEF line) (Q9DCH4, form named): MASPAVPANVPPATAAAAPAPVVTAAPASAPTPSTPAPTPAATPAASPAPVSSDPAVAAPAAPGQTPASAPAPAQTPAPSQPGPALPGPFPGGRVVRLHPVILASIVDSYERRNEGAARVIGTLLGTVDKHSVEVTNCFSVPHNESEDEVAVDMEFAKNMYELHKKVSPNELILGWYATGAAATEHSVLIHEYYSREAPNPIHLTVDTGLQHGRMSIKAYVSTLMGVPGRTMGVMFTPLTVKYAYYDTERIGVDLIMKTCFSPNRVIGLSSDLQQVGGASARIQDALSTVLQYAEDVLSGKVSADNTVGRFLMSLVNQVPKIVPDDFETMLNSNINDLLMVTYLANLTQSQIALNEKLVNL
UniProt Q01705, residues 19-2183: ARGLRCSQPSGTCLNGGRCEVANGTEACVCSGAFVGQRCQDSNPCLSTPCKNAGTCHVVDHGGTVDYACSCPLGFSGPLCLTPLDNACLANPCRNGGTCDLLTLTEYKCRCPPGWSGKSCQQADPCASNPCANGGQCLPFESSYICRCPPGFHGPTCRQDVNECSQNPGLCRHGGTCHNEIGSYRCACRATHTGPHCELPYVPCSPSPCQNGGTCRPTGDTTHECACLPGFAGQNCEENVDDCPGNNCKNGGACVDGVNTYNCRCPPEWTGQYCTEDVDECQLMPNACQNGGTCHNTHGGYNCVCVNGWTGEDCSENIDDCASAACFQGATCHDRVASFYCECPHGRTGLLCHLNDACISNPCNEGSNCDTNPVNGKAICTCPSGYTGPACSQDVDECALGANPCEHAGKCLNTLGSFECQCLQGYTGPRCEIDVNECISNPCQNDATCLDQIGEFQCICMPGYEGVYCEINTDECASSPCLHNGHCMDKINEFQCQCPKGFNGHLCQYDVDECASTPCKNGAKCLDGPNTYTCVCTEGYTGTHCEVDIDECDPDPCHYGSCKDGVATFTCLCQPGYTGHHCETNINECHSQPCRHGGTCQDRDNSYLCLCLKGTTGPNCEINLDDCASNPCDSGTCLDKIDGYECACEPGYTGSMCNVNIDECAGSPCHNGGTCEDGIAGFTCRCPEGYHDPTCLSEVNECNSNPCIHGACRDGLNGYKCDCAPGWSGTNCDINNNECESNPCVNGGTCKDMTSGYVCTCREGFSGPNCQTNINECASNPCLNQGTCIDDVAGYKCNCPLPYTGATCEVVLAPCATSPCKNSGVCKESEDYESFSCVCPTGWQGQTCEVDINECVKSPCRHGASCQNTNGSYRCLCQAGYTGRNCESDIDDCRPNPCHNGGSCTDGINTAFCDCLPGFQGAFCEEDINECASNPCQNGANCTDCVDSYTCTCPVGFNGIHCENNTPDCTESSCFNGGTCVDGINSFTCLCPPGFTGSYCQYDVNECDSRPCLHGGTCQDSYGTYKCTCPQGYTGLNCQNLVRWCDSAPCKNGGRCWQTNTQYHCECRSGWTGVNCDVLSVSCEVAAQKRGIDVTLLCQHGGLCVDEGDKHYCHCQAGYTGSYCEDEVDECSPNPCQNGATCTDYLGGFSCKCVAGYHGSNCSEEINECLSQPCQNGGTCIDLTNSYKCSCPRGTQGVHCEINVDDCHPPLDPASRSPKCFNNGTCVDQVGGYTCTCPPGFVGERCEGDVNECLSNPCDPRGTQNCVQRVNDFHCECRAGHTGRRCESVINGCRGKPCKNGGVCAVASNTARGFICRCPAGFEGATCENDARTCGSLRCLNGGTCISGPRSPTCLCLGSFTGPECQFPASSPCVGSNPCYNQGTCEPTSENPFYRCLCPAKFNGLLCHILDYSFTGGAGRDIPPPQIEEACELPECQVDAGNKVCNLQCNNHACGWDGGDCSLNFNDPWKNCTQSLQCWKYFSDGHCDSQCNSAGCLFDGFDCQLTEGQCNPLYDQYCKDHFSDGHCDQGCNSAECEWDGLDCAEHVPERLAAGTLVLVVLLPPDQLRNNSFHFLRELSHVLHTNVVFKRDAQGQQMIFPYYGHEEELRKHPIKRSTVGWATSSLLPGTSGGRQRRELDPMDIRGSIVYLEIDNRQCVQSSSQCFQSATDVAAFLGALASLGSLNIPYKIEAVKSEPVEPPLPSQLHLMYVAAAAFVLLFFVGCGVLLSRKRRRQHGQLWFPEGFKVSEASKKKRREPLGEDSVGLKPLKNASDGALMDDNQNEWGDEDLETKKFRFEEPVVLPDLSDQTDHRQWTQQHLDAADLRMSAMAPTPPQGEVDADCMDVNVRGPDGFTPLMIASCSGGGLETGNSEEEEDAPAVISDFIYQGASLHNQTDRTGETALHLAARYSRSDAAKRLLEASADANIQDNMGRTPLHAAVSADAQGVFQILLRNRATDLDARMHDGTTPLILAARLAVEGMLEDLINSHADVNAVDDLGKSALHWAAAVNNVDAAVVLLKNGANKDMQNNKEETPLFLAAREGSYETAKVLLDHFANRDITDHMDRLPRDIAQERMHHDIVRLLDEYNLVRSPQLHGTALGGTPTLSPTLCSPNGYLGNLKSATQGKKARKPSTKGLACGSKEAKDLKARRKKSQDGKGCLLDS

Assay [2] has as its target T2, VSV-tagged Deltex1 (VSV-DTX) (UniProt Q86Y01).
T2 sequence: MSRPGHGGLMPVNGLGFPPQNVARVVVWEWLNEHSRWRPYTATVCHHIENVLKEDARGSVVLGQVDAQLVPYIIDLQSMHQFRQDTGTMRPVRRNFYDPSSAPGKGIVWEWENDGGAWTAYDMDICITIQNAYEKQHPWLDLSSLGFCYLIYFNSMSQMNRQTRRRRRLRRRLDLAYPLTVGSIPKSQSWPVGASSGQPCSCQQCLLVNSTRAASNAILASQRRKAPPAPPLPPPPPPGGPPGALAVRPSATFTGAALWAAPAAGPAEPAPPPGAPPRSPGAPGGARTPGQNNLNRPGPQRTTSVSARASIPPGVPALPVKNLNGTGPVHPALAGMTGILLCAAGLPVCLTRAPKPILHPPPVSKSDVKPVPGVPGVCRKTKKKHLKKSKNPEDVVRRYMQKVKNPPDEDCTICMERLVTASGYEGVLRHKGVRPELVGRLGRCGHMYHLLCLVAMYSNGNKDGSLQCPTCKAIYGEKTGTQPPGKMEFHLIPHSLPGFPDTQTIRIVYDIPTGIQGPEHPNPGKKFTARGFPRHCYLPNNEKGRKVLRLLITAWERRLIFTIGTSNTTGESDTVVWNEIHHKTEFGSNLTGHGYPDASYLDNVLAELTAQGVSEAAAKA
The assay is described as follows: co-IP; HEK293T cotransfected with eIF3f forms and VSV-DTX; IP with anti-VSV, precipitates eluted with VSV peptide; Western blot. Background: A western blot detects proteins with antibodies after separation by electrophoresis.

The target in assay [3] is HA-tagged murine eIF3f WT (meIF3f WT) (mouse) (UniProt Q9DCH4). The assay is described as follows: co-IP; HEK293T cotransfected with HA-eIF3f, VSV-DTX and a myc-tagged Notch construct; IP with anti-HA; Western blot.
The target of assay [4] is S-tagged murine eIF3f WT (stable MEF line) (mouse) (UniProt Q9DCH4). The assay is described as follows: co-IP; stable MEF lines with low amounts of VSV-DTX and S-tagged eIF3f; IP with S-tag antibody, Laemmli-eluted; Western blot.
In assay [5] the target is Flag-tagged murine eIF3f (188–361) (mouse) (UniProt Q9DCH4). The assay is described as follows: co-IP; HEK293T cotransfected; lysis and IP in 50 mM Tris-HCl pH 7.9, 400 mM NaCl, 5 mM MgCl2, 1% Triton X-100; eIF3f immunoprecipitated with anti-HA or anti-Flag; Western blot.
Assay [6] addresses Flag-tagged murine eIF3f (91–361) (mouse) (UniProt Q9DCH4). The description is as above.
In assay [7] the target is HA-tagged murine eIF3f (1–192) (mouse) (UniProt Q9DCH4). The description is as above.
Assay [8] deals with HA-tagged murine eIF3f WT (meIF3f WT) (mouse) (UniProt Q9DCH4). The assay is described as above.

Results are given in words; binding and its absence hold for the method and conditions named. In cells and extracts the contact can be indirect. Some entries that bind do so weakly or less than the wild type. For part of these data: Tags and fused reporters may be left off the sequences shown.

On to “S-tagged murine eIF3f WT (stable MEF line) (from UniProt Q9DCH4 1-361)”, for which the binding result in assay [1] was “binds”.
On to “HA-tagged murine eIF3f WT (meIF3f WT) (from UniProt Q9DCH4 1-361)”, for which, in assay [2], the binding entry is “binds”.
Take “S-tagged murine eIF3f active site mutant (HDI to AAA; stable MEF line) (from UniProt Q9DCH4 1-361)”: in assay [1], the binding entry was “binds”.
On to “Notch FL (myc-tagged non-activated full-length murine Notch1, deleted from aa 2183) (from UniProt Q01705 19-2183) (receptor)”, for which the binding entry in assay [3] is listed as “no binding”.

B1: VSV-DTX (stable MEF line) (protein, UniProt Q86Y01 1-620)
chain: MSRPGHGGLMPVNGLGFPPQNVARVVVWEWLNEHSRWRPYTATVCHHIENVLKEDARGSVVLGQVDAQLVPYIIDLQSMHQFRQDTGTMRPVRRNFYDPSSAPGKGIVWEWENDGGAWTAYDMDICITIQNAYEKQHPWLDLSSLGFCYLIYFNSMSQMNRQTRRRRRLRRRLDLAYPLTVGSIPKSQSWPVGASSGQPCSCQQCLLVNSTRAASNAILASQRRKAPPAPPLPPPPPPGGPPGALAVRPSATFTGAALWAAPAAGPAEPAPPPGAPPRSPGAPGGARTPGQNNLNRPGPQRTTSVSARASIPPGVPALPVKNLNGTGPVHPALAGMTGILLCAAGLPVCLTRAPKPILHPPPVSKSDVKPVPGVPGVCRKTKKKHLKKSKNPEDVVRRYMQKVKNPPDEDCTICMERLVTASGYEGVLRHKGVRPELVGRLGRCGHMYHLLCLVAMYSNGNKDGSLQCPTCKAIYGEKTGTQPPGKMEFHLIPHSLPGFPDTQTIRIVYDIPTGIQGPEHPNPGKKFTARGFPRHCYLPNNEKGRKVLRLLITAWERRLIFTIGTSNTTGESDTVVWNEIHHKTEFGSNLTGHGYPDASYLDNVLAELTAQGVSEAAAKA
B1: the binding entry in assay [4] is listed as “binds”.

B2: VSV-tagged Deltex1 (VSV-DTX) (protein, UniProt Q86Y01 1-620)
chain: MSRPGHGGLMPVNGLGFPPQNVARVVVWEWLNEHSRWRPYTATVCHHIENVLKEDARGSVVLGQVDAQLVPYIIDLQSMHQFRQDTGTMRPVRRNFYDPSSAPGKGIVWEWENDGGAWTAYDMDICITIQNAYEKQHPWLDLSSLGFCYLIYFNSMSQMNRQTRRRRRLRRRLDLAYPLTVGSIPKSQSWPVGASSGQPCSCQQCLLVNSTRAASNAILASQRRKAPPAPPLPPPPPPGGPPGALAVRPSATFTGAALWAAPAAGPAEPAPPPGAPPRSPGAPGGARTPGQNNLNRPGPQRTTSVSARASIPPGVPALPVKNLNGTGPVHPALAGMTGILLCAAGLPVCLTRAPKPILHPPPVSKSDVKPVPGVPGVCRKTKKKHLKKSKNPEDVVRRYMQKVKNPPDEDCTICMERLVTASGYEGVLRHKGVRPELVGRLGRCGHMYHLLCLVAMYSNGNKDGSLQCPTCKAIYGEKTGTQPPGKMEFHLIPHSLPGFPDTQTIRIVYDIPTGIQGPEHPNPGKKFTARGFPRHCYLPNNEKGRKVLRLLITAWERRLIFTIGTSNTTGESDTVVWNEIHHKTEFGSNLTGHGYPDASYLDNVLAELTAQGVSEAAAKA
For B2, the binding result in assay [5], in assay [6], in assay [7] and in assay [8] was “binds” each time.

The record behind these values is PMC2990700.
